Measured values reported in PubChem BioAssay AID1347417 (National Center for Advancing Translational Sciences (NCATS), 2020).
“And” between values parts separate entries of the source, which are not always exact repeats. Identical values can stand only once. About 5,300 (4.4%) of roughly 120,000 compounds were called active. The inconclusive results got no clear call from the source; some entries with a clear call stand among them for comparison. The call rests on the fitted dose curve; in most records, active means well fitted inhibition curve with a large enough effect; inconclusive means small, poorly fitted or top-dose-only effect; inactive means no such curve, though single readings can be large or run the other way. A potency beside an inconclusive call is a rough fit, not a confirmed value.

Test: qHTS Primary assay for Inhibitors of Plasmodium falciparum Dd2 growth in vitro; further: nearly all actives have a fitted effect of over 65% in size;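 on activity, negative = inhibition: plate controls were DMSO vehicle for no effect and reference drug for full effect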
Conditions: P. falciparum Dd2 growth, SYBR Green, 72 h; activity, negative = inhibition: at 28.9 µM (top of the series) unless noted; series mostly up to 28.9 µM
Summary of the method: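 Readout: SYBR Green fluorescence, 485 nm excitation, 535 nm emission, after ~16 h lysis at 37C. Before that, Dd2-infected red cells (2.5% hematocrit) grew 72 h with compound, 29 uM top final concentration.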
Potency means the concentration at half of the fitted maximal effect; tags describe the fitted curve by direction and shape.

| SMILES | Potency | activity, negative = inhibition | outcome |
| --- | --- | --- | --- |
| COc1ccc(NC(=O)C[C@@H]2C[C@@H](C(C)C)[C@H](CC#N)C=C2C)cn1 | inconclusive: 14.1 µM [inhibitor, single point] | – | – |
| CCOC(=O)c1sc2ccccc2c1S(=O)(=O)N1CCN(c2ccccc2)CC1 | inconclusive: 17.8 µM [inhibitor, single point] | – | – |
| Cc1cnc(-c2cccnc2)n1C1CCN(C(=O)c2ccncc2)CC1 | – | inactive: 5% | – |
| COc1ccccc1-c1ccc(C(=O)N2C[C@@H](C)[C@@](C)(O)C2)cc1 | – | inactive: 2.88% | – |
| O=C1CC2(CCN(Cc3cccs3)CC2)Oc2cc(Cl)ccc21 | inconclusive: 355 nM [inhibitor, full curve, poor fit] and inconclusive: 7.94 µM [inhibitor, partial curve, poor fit] | – | – |
| COc1ccccc1CC(=O)N1CCCc2ncc(C(=O)N3CCCC[C@@H]3c3ccccc3)cc21 | active: 11.2 µM | – | – |
| Cc1nn(Cc2ccccc2)c(C)c1[C@@H]1C=C[C@@H](NC(=O)CCC(=O)O)C1 | – | inactive: -7.97% [at 44.1 µM] | – |
| CC(C)NC(=O)[C@H]1CN2CCC1C[C@@H]2Cn1cc(-c2ccc(F)cc2)nn1 (stereo not given in full) | – | – | inactive [at 44.1 µM] |
| COc1ccc(NC(=O)c2cc(-c3ccccc3O)no2)cc1 | inconclusive: 10 µM [inhibitor, single point] | – | – |
| O=C(c1cccc2cnccc12)N1CCCC2(C=Cc3ccccc3O2)CC1 (stereo not given) | inconclusive: 15.8 µM [inhibitor, partial curve, poor fit] | – | – |
| O=C(Nc1ccc2nc(SCC(=O)N3CCCC3)sc2c1)c1ccccc1F | inconclusive: 11.2 µM [inhibitor, partial curve, poor fit] | – | – |
| COc1ccc(CNC(=O)c2c(Nc3ccccc3C)sc(C(=O)c3ccccc3)c2N)cc1 | inconclusive: 11.2 µM [inhibitor, single point] | – | – |
| Cn1cc(CN2CCOCCNC(=O)CC2)c2ccccc21 | inconclusive: 4.47 µM [inhibitor, partial curve] | – | – |
| COc1ccccc1Nc1c2c(nc3ccc(NC(=O)c4cccc(F)c4)cc13)CCCC2 | active: 3.16 µM | – | – |
| Cc1oc(-c2ccc(F)cc2)nc1CN1CCC2(CCCO2)CCC1=O (stereo not given) | – | inactive: 1.64% | – |
| O=C(NCc1ccccc1C(F)(F)F)C1CCCN(c2cnn(Cc3ccccc3)c(=O)c2)C1 (stereo not given) | inconclusive: 8.91 µM [inhibitor, single point] | – | – |
| CC(=O)c1cc(CN2CCN(c3nnc(C(F)(F)F)s3)CC2)cs1 | inconclusive: 12.6 µM [inhibitor, single point] | – | – |
| CCc1ccc(CNC(=O)C2CCN(C(=O)N3CC(CC)Oc4ccc(C)cc43)CC2)cc1 (stereo not given) | inconclusive: 11.2 µM [inhibitor, single point] | – | – |
| CCC1=C(C(=O)OC)C(c2ccc(C)cc2C)N2C(CC(=O)N3CCC(C)CC3)=CSC2=N1 (stereo not given) | inconclusive: 7.94 µM [inhibitor, partial curve, poor fit] | – | – |
| CCCCN(CCCC)CCNC(=O)c1cc(=O)[nH]c2ccc(S(=O)(=O)N3CCCCCC3)cc12 | inconclusive: 11.2 µM [inhibitor, single point] | – | – |
| CC(C)c1ccc(NC(=O)CSc2nc(=O)n(Cc3cccnc3)c3c2CCC3)cc1 | inconclusive: 3.98 µM [inhibitor, single point] | – | – |
| COc1ccc(-c2noc(CSc3nnc(-c4ccc(Cl)cc4)n3C)n2)cc1OC | inconclusive: 11.2 µM [inhibitor, single point] | – | – |

| SMILES | Potency | activity, negative = inhibition | outcome |
| --- | --- | --- | --- |
| O=C(C1CC=CCC1)N1CCC(Oc2ccccc2F)(C(=O)O)CC1 (stereo not given) | – | inactive: -0.0777% | – |
| CCc1cnc2c(c1SCC(=O)Nc1cc(Cl)ccc1OC)c(=O)n(C)c(=O)n2C | – | inactive: -5.06% | – |
| O=C(Nc1cccc(F)c1)[C@@H]1C[C@H](c2ccc(F)cc2)N([S+](=O)([O-])C2CC2)C1 | inconclusive: 2.24 µM [inhibitor, partial curve, poor fit] | – | – |
| CCOc1ccccc1NC(=O)CSc1nc2c(oc3ccccc32)c(=O)n1Cc1ccco1 | – | inactive: -28.3% | – |
| CCOC(=O)c1cnc2c(C(F)(F)F)cccc2c1Nc1cccc(C(=O)OC)c1 | active: 2.82 µM | – | – |
| Cc1noc(C2CC3(CCN(C(=O)CC4CCCC4)CC3)CN2C)n1 (stereo not given) | inconclusive: 11.2 µM [inhibitor, single point] | – | – |
| COCc1nc(C2CC(Nc3ccnc4cc(Cl)ccc34)C2)cc(=O)[nH]1 (stereo not given) | active: 7.94 µM and active: 2.51 µM | – | – |
| COc1ccccc1CNC(=O)c1sc2nc3n(c(=O)c2c1C)CCC3 | inconclusive: 12.6 µM [inhibitor, single point] | – | – |
| COCc1cccc(-c2n[nH]c3c2CC(=O)N(Cc2ccccc2)C3)c1 | – | – | inactive [at 44.1 µM] |
| COc1cccc(CC(=O)N2C[C@@H](Oc3cccnc3)C[C@H]2C(=O)N2CCCC2)c1 | – | inactive: -14.6% | – |
| Cn1ccc(C(=O)N2CCC(c3nnc4n3C(C(=O)NCCc3ccc(Cl)cc3)CC4)CC2)n1 (stereo not given) | – | inactive: 12.2% | – |
| Cc1ccc2nc(-c3ccc(NC(=O)COc4ccc(Cl)c(C)c4)cc3)sc2c1 | – | inactive: 49.4% | – |
| COc1ccc(Nc2cc(C)c3cc(NC(=O)Cc4c(F)cccc4Cl)ccc3n2)cc1 | inconclusive: 1.78 µM [inhibitor, full curve, poor fit] | – | – |
| CCN(Cc1ccccc1)C(=O)C1CCN(S(=O)(=O)c2c(C)noc2/C=C/c2ccc(C)cc2)CC1 | inconclusive: 17.8 µM [inhibitor, single point] | – | – |
| O=C(c1cccnc1)N1CCCC1c1nc(CCOCC2CC2)no1 (stereo not given) | – | inactive: -24.7% | – |
| Cn1c(CNC(=O)CCC[C@@H]2[C@H]3CCCN4CCC[C@@H](CN2Cc2ccccc2)[C@@H]34)nc2ccccc21 | inconclusive: 17.8 µM [inhibitor, single point] | – | – |
| CCCNc1ccc(-c2nc(-c3ccncc3)no2)cc1[N+](=O)[O-] | inconclusive: 0.0398 µM [inhibitor, full curve, poor fit] | – | – |
| Cc1cccc(N2CCN(C(=O)c3ccc(NC(=O)c4nsc5ccccc45)cc3)CC2C)c1 (stereo not given) | inconclusive: 12.6 µM [inhibitor, single point] | – | – |
| Cc1nc(-c2ccc(C(F)(F)F)cc2)cc([C@H]2CN3CC[C@H]2C[C@@H]3CNC(=O)N2CCOCC2)n1 | – | – | inactive |
| CCC(C)NC(=O)CN1CN(c2ccccc2)C2(CCN(C(=O)Nc3ccccc3C)CC2)C1=O (stereo not given) | inconclusive: 0.251 µM [inhibitor, full curve, poor fit] | – | – |
| Cc1cccc(-c2cnc3[nH]cc(CC(N)=O)c3c2)c1 | – | – | inactive [at 44.1 µM] |
| COc1ccc(C2Cn3nnc(-c4noc(-c5ccc(OC)cc5C)n4)c3CO2)cc1 (stereo not given) | inconclusive: 6.31 µM [inhibitor, partial curve, poor fit] | – | – |

| SMILES | Potency | activity, negative = inhibition | outcome |
| --- | --- | --- | --- |
| COc1ccc(-c2nnc(C[C@@H]3C[C@@H](C(C)C)[C@H](CN4CCC(O)CC4)C=C3C)o2)cc1 | inconclusive: 0.447 µM [inhibitor, full curve, poor fit] | – | – |
| CCNc1cc(N2CCC(CCC(=O)N3CCCN(c4ncccn4)CC3)CC2)ncn1 | inconclusive: 10 µM [inhibitor, single point] | – | – |
| NC1CCCCN(Cc2cnc(-c3ccco3)nc2)C1 (stereo not given) | – | inactive: -24.5% | – |
| Cc1c(NC(=O)c2cc(=O)c3cc(Cl)ccc3o2)c(=O)n(-c2ccccc2)n1C | – | – | inactive |
| Cn1nc(-c2ccccc2)cc1[C@H]1CN2CC[C@H]1C[C@@H]2CNC(=O)c1ccco1 | inconclusive: 8.91 µM [inhibitor, partial curve] | – | – |
| COc1ccc(CN[C@@H]2C=C[C@@H](c3c(C)nn(-c4ccccc4)c3C)C2)cc1 | active: 6.31 µM | – | – |
| CN(c1cc(=O)c2ccnc(-c3cccc(C(F)(F)F)c3)c2o1)C1CCOCC1 | inconclusive: 11.2 µM [inhibitor, partial curve, poor fit] | – | – |
| COCCOCc1nc(C2CCN(C(=O)NCc3ccc(C)cc3)CC2)no1 | – | inactive: -25.5% | – |
| COc1ccc(N2CC(NC(=O)c3ccc(S(=O)(=O)N4CCCCC4)cc3)CC2=O)cc1OC (stereo not given) | – | – | inactive |
| COc1cc(OC)cc(-c2nc3nc(C)c(CCC(=O)Nc4cc(F)ccc4F)c(C)n3n2)c1 | – | inconclusive: -36.5% [inhibitor] | – |
| CCOC(=O)c1ccc(NC(=O)Cn2cc(C(=O)c3ccc(Cl)cc3)c(=O)c3ccc(C)nc32)cc1 | inconclusive: 8.91 µM [inhibitor, partial curve] | – | – |
| COc1ccccc1OCCNC(=O)[C@@H]1COCC(=O)N1Cc1ccc(F)cc1 | inconclusive: 20 µM [inhibitor, single point] | – | – |
| COc1ccc(OCc2cc(C(=O)NCCc3nc(C)c(C)s3)no2)c(Cl)c1 | inconclusive: 7.94 µM [inhibitor, single point] | – | – |
| CN(CC(=O)O)c1ncc(CN2CCn3nc(C(O)CO)cc3C2)cn1 (stereo not given) | – | inactive: -8.06% | – |
| COc1ccc(-c2noc([C@@H]3CCCN3C(=O)c3cc4ccccc4[nH]3)n2)cc1OC | inconclusive: 17.8 µM [inhibitor, single point] | – | – |
| COC[C@@H]1CN(Cc2cccc(OC)c2OC)C[C@H]1c1ccccn1 | inconclusive: 10 µM [inhibitor, partial curve, poor fit] | – | – |
| COc1ccc(Nc2cnc3ccc(-c4ccccc4OC)nn23)cc1 | inconclusive: 3.55 µM [inhibitor, single point] | – | – |
| Cc1nc2c(C(=O)NC(C)c3ccccc3)cnn2c(C)c1Cc1ccccc1 (stereo not given) | active: 8.91 µM | – | – |
| CCOc1ccc(C(=O)N2CCN(C(=O)c3nnn4c3COC(c3ccccc3)C4)CC2)cc1 (stereo not given) | – | – | inactive |
| O=C(c1ccc(Cl)cc1)N1CCC2(C1)C(=O)N(CCc1ccccc1)c1ccccc12 (stereo not given) | inconclusive: 8.91 µM [inhibitor, single point] | – | – |
| Cc1ccc(N2CCN(c3nc(C(=O)O)cs3)CC2)cc1 | – | inactive: -3.17% | – |
